{
  "source": "the supplement of paper PMC8728848",
  "test_in_all_cases": "glycan array binding signal (z-score within array); higher = stronger binding",
  "conditions_in_all_cases": "glycan notation: IUPAC condensed, linker removed",
  "key": {"Gal6S(b1-4)Glc6S": {"target": "Gal6S(b1-4)Glc6S", "how_it_was_run": "(§1)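 Columns mapping to the same glycan were averaged after glycan names were converted to IUPAC-condensed notation. The data come from 3228 arrays in the Consortium for Functional Glycomics database, limited to those with an available protein sequence. Binding is reported as a within-array Z-score averaged across arrays of one protein sequence and across linkers.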"}, "Gal6S(b1-4)GlcNAc": {"target": "Gal6S(b1-4)GlcNAc", "how_it_was_run": "as §1"}, "Gal6S(b1-4)GlcNAc6S": {"target": "Gal6S(b1-4)GlcNAc6S", "how_it_was_run": "as §1"}, "GalNAc(a1-3)Gal": {"target": "GalNAc(a1-3)Gal", "how_it_was_run": "as §1"}, "GalNAc(a1-3)GalNAc": {"target": "GalNAc(a1-3)GalNAc", "how_it_was_run": "as §1"}, "[1]": {"target": "GalNAc(a1-3)GalNAc(b1-3)Gal(a1-4)Gal(b1-4)Glc", "how_it_was_run": "as §1"}, "[2]": {"target": "GalNAc(a1-3)GalNAc(b1-3)Gal(a1-4)Gal(b1-4)GlcNAc", "how_it_was_run": "as §1"}, "GalNAc(b1-3)Gal": {"target": "GalNAc(b1-3)Gal", "how_it_was_run": "as §1"}, "[3]": {"target": "GalNAc(b1-3)Gal(a1-4)Gal(b1-4)GlcNAc", "how_it_was_run": "as §1"}, "[4]": {"target": "GalNAc(b1-3)Gal(a1-4)Gal(b1-4)GlcNAc(b1-3)Gal(b1-4)Glc", "how_it_was_run": "as §1"}, "[5]": {"target": "GalNAc(b1-3)Gal(a1-6)Gal(b1-4)Glc", "how_it_was_run": "as §1"}, "GalNAc(b1-3)GalNAc": {"target": "GalNAc(b1-3)GalNAc", "how_it_was_run": "as §1"}, "GalNAc(b1-3)GlcNAc": {"target": "GalNAc(b1-3)GlcNAc", "how_it_was_run": "as §1"}, "GalNAc(b1-4)Gal(b1-4)Glc": {"target": "GalNAc(b1-4)Gal(b1-4)Glc", "how_it_was_run": "as §1"}, "GalNAc(b1-4)GlcNAc": {"target": "GalNAc(b1-4)GlcNAc", "how_it_was_run": "as §1"}, "[6]": {"target": "GalNAc(b1-4)GlcNAc(b1-2)Man", "how_it_was_run": "as §1"}, "[7]": {"target": "GalNAc(b1-4)GlcNAc(b1-2)Man(a1-3)[GalNAc(b1-4)GlcNAc(b1-2)Man(a1-6)]Man(b1-4)GlcNAc(b1-4)GlcNAc", "how_it_was_run": "as §1"}, "[8]": {"target": "GalNAc(b1-4)GlcNAc(b1-3)GalNAc(b1-4)GlcNAc", "how_it_was_run": "as §1"}, "GalNAc(b1-4)GlcNAc6S": {"target": "GalNAc(b1-4)GlcNAc6S", "how_it_was_run": "as §1"}, "GalNAc(b1-6)GalNAc": {"target": "GalNAc(b1-6)GalNAc", "how_it_was_run": "as §1"}, "GalNAc3S(b1-4)GlcNAc": {"target": "GalNAc3S(b1-4)GlcNAc", "how_it_was_run": "as §1"}, "GalNAc3S(b1-4)GlcNAc3S": {"target": "GalNAc3S(b1-4)GlcNAc3S", "how_it_was_run": "as §1"}, "[9]": {"target": "GalNAc3S(b1-4)[Fuc(a1-3)]GlcNAc", "how_it_was_run": "as §1"}, "GalNAc4S6S(b1-4)GlcNAc": {"target": "GalNAc4S6S(b1-4)GlcNAc", "how_it_was_run": "as §1"}, "GalNAc6S(b1-4)GlcNAc": {"target": "GalNAc6S(b1-4)GlcNAc", "how_it_was_run": "as §1"}, "Glc(a1-4)Glc": {"target": "Glc(a1-4)Glc", "how_it_was_run": "as §1"}, "[10]": {"target": "Glc(a1-4)Glc(a1-4)Glc(a1-4)Glc", "how_it_was_run": "as §1"}, "Glc(a1-6)Glc(a1-6)Glc": {"target": "Glc(a1-6)Glc(a1-6)Glc", "how_it_was_run": "as §1"}, "[11]": {"target": "Glc(a1-6)Glc(a1-6)Glc(a1-6)Glc", "how_it_was_run": "as §1"}, "Glc(b1-4)Glc": {"target": "Glc(b1-4)Glc", "how_it_was_run": "as §1"}, "Glc(b1-6)Glc": {"target": "Glc(b1-6)Glc", "how_it_was_run": "as §1"}, "GlcA(b1-3)Gal": {"target": "GlcA(b1-3)Gal", "how_it_was_run": "as §1"}, "GlcA(b1-3)GlcNAc": {"target": "GlcA(b1-3)GlcNAc", "how_it_was_run": "as §1"}, "GlcA(b1-6)Gal": {"target": "GlcA(b1-6)Gal", "how_it_was_run": "as §1"}, "[12]": {"target": "GlcA3S(b1-3)Gal(b1-4)GlcNAc(b1-2)Man", "how_it_was_run": "as §1"}, "[13]": {"target": "GlcA3S(b1-3)Gal(b1-4)GlcNAc(b1-3)Gal(b1-4)Glc", "how_it_was_run": "as §1"}, "[14]": {"target": "GlcNAc(a1-3)Gal(b1-4)GlcNAc", "how_it_was_run": "as §1"}},
  "note": "The list shows a part of the results.",
  "data": [
    {"binder": "SP16664D-bth-476-27-476 (Bacteroides thetaiotaomicron) (protein) DDLEVGKNIDESAYSGIYENNAYLRDGKSNLVSKVVELHGETYATTVKMGLSKTPNTATSAKVKIDAAYLETYNKAHNTDFALYPQDLVTFANEGILTVNANTKSAEVEMTIRAGEGLQEDKTYAIPVAISDQSSDITIKDEDAKHCIYLVKDMRNAGDAYKGEGVMQGYLFFEVNDVNPLNTLSFQLENGKLLWDVVVLFAANINYDAEAGRPRVQCNPNVQYLLDNNETLLQPLRRRGVKVLLGLLGNHDITGLAQLSEQGAKDFAREVAQYCKAYNLDGVNYDDEYSNSPDLSNPSLTNPSTAAAARLCYETKQAMPDKLVTVFDWGQMYGVATVDGVDAKEWIDIVVANYGSAAYPIGQMTKKQCSGISMEFNLGGGGSLSASKAQSMIDGGYGWFMGFAPSPAKYGSVFSRLQGGGEVLYGSNVAAPTIFYKKNDPTPYKYPDDL", "values": [
      {"measurement": "glycan array binding signal (z-score)", "setting": "Gal6S(b1-4)Glc6S", "result": 0.344},
      {"measurement": "glycan array binding signal (z-score)", "setting": "Gal6S(b1-4)GlcNAc", "result": 0.594},
      {"measurement": "glycan array binding signal (z-score)", "setting": "Gal6S(b1-4)GlcNAc6S", "result": -0.222},
      {"measurement": "glycan array binding signal (z-score)", "setting": "GalNAc(a1-3)Gal", "result": 0.077},
      {"measurement": "glycan array binding signal (z-score)", "setting": "GalNAc(a1-3)GalNAc", "result": 0.083},
      {"measurement": "glycan array binding signal (z-score)", "setting": "[1]", "result": -0.045},
      {"measurement": "glycan array binding signal (z-score)", "setting": "[2]", "result": -0.244},
      {"measurement": "glycan array binding signal (z-score)", "setting": "GalNAc(b1-3)Gal", "result": -0.159},
      {"measurement": "glycan array binding signal (z-score)", "setting": "[3]", "result": -0.112},
      {"measurement": "glycan array binding signal (z-score)", "setting": "[4]", "result": 0.373},
      {"measurement": "glycan array binding signal (z-score)", "setting": "[5]", "result": 0.115},
      {"measurement": "glycan array binding signal (z-score)", "setting": "GalNAc(b1-3)GalNAc", "result": -0.012},
      {"measurement": "glycan array binding signal (z-score)", "setting": "GalNAc(b1-3)GlcNAc", "result": 0.226},
      {"measurement": "glycan array binding signal (z-score)", "setting": "GalNAc(b1-4)Gal(b1-4)Glc", "result": -0.229},
      {"measurement": "glycan array binding signal (z-score)", "setting": "GalNAc(b1-4)GlcNAc", "result": -0.075},
      {"measurement": "glycan array binding signal (z-score)", "setting": "[6]", "result": -0.198},
      {"measurement": "glycan array binding signal (z-score)", "setting": "[7]", "result": 0.208},
      {"measurement": "glycan array binding signal (z-score)", "setting": "[8]", "result": -0.199},
      {"measurement": "glycan array binding signal (z-score)", "setting": "GalNAc(b1-4)GlcNAc6S", "result": -0.173},
      {"measurement": "glycan array binding signal (z-score)", "setting": "GalNAc(b1-6)GalNAc", "result": -0.205},
      {"measurement": "glycan array binding signal (z-score)", "setting": "GalNAc3S(b1-4)GlcNAc", "result": -0.345},
      {"measurement": "glycan array binding signal (z-score)", "setting": "GalNAc3S(b1-4)GlcNAc3S", "result": -0.281},
      {"measurement": "glycan array binding signal (z-score)", "setting": "[9]", "result": -0.316},
      {"measurement": "glycan array binding signal (z-score)", "setting": "GalNAc4S6S(b1-4)GlcNAc", "result": -0.07},
      {"measurement": "glycan array binding signal (z-score)", "setting": "GalNAc6S(b1-4)GlcNAc", "result": -0.214},
      {"measurement": "glycan array binding signal (z-score)", "setting": "Glc(a1-4)Glc", "result": -0.065},
      {"measurement": "glycan array binding signal (z-score)", "setting": "[10]", "result": -0.222},
      {"measurement": "glycan array binding signal (z-score)", "setting": "Glc(a1-6)Glc(a1-6)Glc", "result": -0.198},
      {"measurement": "glycan array binding signal (z-score)", "setting": "[11]", "result": -0.237},
      {"measurement": "glycan array binding signal (z-score)", "setting": "Glc(b1-4)Glc", "result": -0.002},
      {"measurement": "glycan array binding signal (z-score)", "setting": "Glc(b1-6)Glc", "result": 0.288},
      {"measurement": "glycan array binding signal (z-score)", "setting": "GlcA(b1-3)Gal", "result": -0.078},
      {"measurement": "glycan array binding signal (z-score)", "setting": "GlcA(b1-3)GlcNAc", "result": -0.153},
      {"measurement": "glycan array binding signal (z-score)", "setting": "GlcA(b1-6)Gal", "result": 0.117},
      {"measurement": "glycan array binding signal (z-score)", "setting": "[12]", "result": -0.328},
      {"measurement": "glycan array binding signal (z-score)", "setting": "[13]", "result": -0.373},
      {"measurement": "glycan array binding signal (z-score)", "setting": "[14]", "result": -0.291}
    ]}
  ]
}
